PMC4336329 (PLoS ONE, 2015)
Screen size: about 310,000 compounds; about 14,000 (4.5%) showed an effect of 50% or more. Effects have a minus sign here. This is one part of the list.

Molecular target: human ether-à-go-go-related gene (hERG) potassium channel (human, UniProt Q12809)
Test: primary screen, population patch clamp on CHO cells stably expressing hERG
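Also: peak tail current of the secondary pulse compared with the same well before compound.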

Chain of human ether-à-go-go-related gene (hERG) potassium channel (Q12809 whole entry, looked up): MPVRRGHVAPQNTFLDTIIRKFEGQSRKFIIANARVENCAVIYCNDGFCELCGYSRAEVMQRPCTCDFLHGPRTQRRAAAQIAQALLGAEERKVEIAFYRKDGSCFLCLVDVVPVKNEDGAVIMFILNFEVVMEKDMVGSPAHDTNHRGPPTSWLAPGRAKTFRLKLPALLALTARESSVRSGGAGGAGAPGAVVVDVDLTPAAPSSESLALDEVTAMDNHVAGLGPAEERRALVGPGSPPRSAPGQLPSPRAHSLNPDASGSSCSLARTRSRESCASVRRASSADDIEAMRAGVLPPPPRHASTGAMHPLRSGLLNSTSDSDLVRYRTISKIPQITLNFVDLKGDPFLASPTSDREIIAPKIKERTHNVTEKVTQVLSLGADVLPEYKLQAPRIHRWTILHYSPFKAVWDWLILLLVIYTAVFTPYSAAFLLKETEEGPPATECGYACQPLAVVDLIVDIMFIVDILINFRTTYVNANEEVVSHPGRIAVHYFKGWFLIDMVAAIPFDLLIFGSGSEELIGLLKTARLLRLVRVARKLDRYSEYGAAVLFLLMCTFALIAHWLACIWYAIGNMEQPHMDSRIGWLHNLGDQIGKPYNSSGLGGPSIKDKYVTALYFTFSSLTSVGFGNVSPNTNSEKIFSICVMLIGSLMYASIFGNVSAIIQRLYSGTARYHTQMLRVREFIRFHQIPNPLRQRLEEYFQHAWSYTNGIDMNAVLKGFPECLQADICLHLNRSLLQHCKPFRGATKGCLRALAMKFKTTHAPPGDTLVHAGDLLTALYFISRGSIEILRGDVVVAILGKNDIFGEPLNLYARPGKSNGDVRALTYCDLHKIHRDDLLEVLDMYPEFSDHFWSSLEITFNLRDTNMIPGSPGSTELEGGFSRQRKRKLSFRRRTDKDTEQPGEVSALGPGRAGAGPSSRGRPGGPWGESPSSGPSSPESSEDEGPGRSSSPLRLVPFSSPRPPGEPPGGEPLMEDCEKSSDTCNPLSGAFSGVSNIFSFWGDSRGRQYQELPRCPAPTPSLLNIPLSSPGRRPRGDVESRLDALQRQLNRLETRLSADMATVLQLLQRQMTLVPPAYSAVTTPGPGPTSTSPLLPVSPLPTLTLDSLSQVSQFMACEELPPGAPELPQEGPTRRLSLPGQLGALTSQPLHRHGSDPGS

Compound | hERG current change (%, negative = inhibition) at 10uM
Cc1ccc(CNC(=O)c2ccccc2-n2cnnn2)cc1 | 9.73%
O=C1CCC(C(=O)N2CCC(CO)(Cc3ccc(Cl)cc3)CC2)=NN1 | -32.5%
Cc1cc(C)nc(SCCCNCc2ccc(Br)cc2)n1.Cl | -36.1%
Cc1ccc(S(=O)(=O)NCC2CCC(C(=O)NCc3cccs3)CC2)cc1 (centres unmarked) | 13.5%
Cc1c(OCc2ccccc2)cccc1OCc1ccccc1 | 11.9%
CCCn1c(SCC(=O)Nc2ccc(NC(C)=O)cc2)nc2c1c(=O)n(C)c(=O)n2C | -4.13%
COC(=O)c1c(NC(=O)c2cccnc2)sc(C)c1C | -22.2%
CN(CCO)c1ncnc2c1sc1nc(N3CCOCC3)c3c(c12)CCC3 | -55.2%
COC(=O)C1(CO)NC(c2ccc(C)cc2)C2C(=O)N(c3ccccc3)C(=O)C21 (centres unmarked) | 4.66%
COc1ccc(CC(=O)OCC(=O)N2N=C(c3ccccc3)CC2c2ccc(OC)cc2)cc1 (centres unmarked) | 9.45%
CN(C)CCCN=Cc1c(O)n(Cc2ccc3c(c2)OCO3)c(=O)c2ccccc12 | -49.1%
Cc1ccc(NC2=C(Cl)C(=O)N(C3CCCCC3)C2=O)cc1 | 16.2%
Cc1cc(NC(=O)CN2CCCC(C)C2)no1.O=C(O)C(=O)O (centres unmarked) | 10.7%
O=C(Nc1ccc(N2CCOCC2)cc1)c1ccc(Br)o1 | -1.81%
COc1ccc(Cl)cc1NC(=O)CN(C)CC(=O)Nc1ccccc1-c1ccccc1 | -1.82%
O=C(O)c1ccc(S(=O)(=O)N2CCOCC2)o1 | 14.8%
CO/N=C/c1ccc(Sc2ccccc2N)c([N+](=O)[O-])c1 | -0.11%
COc1ccc(C)cc1NC(=O)c1ccc2c(=O)n3c(nc2c1)CCCCC3 | -42.5%
O=C(c1ccc(-c2ccccc2)cc1)c1ccc([N+](=O)[O-])cc1 | 6.9%
CNc1ccc(S(=O)(=O)NCC(=O)NCCCc2ccccc2)cc1[N+](=O)[O-] | -9.64%
CCCc1cc(C(=O)Nc2sc(C(C)=O)c(C)c2C(=O)OCC)no1 | -6.72%
Cc1ccc(S(=O)(=O)n2nc(OC(=O)C3CCCCC3)cc2N)cc1 | -19.2%
COC(=O)CSC1=C(C#N)C(c2ccc3c(c2)OCO3)C2=C(CCCC2=O)N1 (centres unmarked) | -5.49%

Compound | hERG current change (%, negative = inhibition) at 10uM
N#Cc1ccc(-n2c(-c3ccccc3)nnc2-c2ccccc2)cc1C#N | -15.5%
CCOC(=O)C1(Cc2ccc(Cl)cc2)CCN(C(C)CCn2cccn2)CC1 (centres unmarked) | -87.2%
CC(C)n1c(SCc2cc(=O)[nH]c3ccccc23)nc2c1c(=O)n(C)c(=O)n2C | -7.13%
Cc1ccc(N2C(=O)CC(NNc3nc4ccccc4s3)C2=O)cc1 (centres unmarked) | -3.18%
Cc1cccc2cc(C#N)c(SCC(=O)N3CC(=O)Nc4ccccc43)nc12 | 2.24%
CCCN(CC(=O)Nc1ccccc1C)C(=O)c1ccc(-c2ccccc2)cc1 | -10.5%
CC(=O)c1cccc(NC(=O)c2c(C)nn(-c3ccccc3)c2Cl)c1 | -24.4%
Cc1c(Nc2nc(-c3ccc(Cl)cc3)cs2)c(=O)n(-c2ccccc2)n1C | -17.3%
COCCn1c(=NC(=O)c2ccco2)sc2cc(C(=O)OC)ccc21 | 2.42%
COCCNC(=S)N1CCC(Cc2ccccc2)CC1 | -24.9%
COc1ccc(-c2nc(CS(=O)CC(=O)NC3CCCCC3)c(C)o2)cc1OC (centres unmarked) | -9.2%
Cl.Nn1cnnc1N/N=C/c1ccc(Cl)c([N+](=O)[O-])c1 | -26.6%
CCC(C(=O)NCc1cccnc1)c1ccccc1 (centres unmarked) | -2.33%
COCCN(CC(=O)NCc1ccc(F)cc1)C(=O)CCC(=O)Nc1nccs1 | 0.181%
Cc1ccc(C)c(OCC(=O)N2CCCN(C)CC2)c1 | 22.3%
S=c1[nH]nc(-c2cc(-c3ccccc3)n[nH]2)n1/N=C/C(Br)=C/c1ccccc1 | 8.45%
COc1ccc(C/C(N)=N/OC(=O)Cc2ccccc2)cc1OC | 7.14%
CCOC(=O)c1cc(NC(=O)C2CCCO2)cc(C(=O)OCC)c1 (centres unmarked) | -6.44%
Cc1cc(=O)oc2c(N)c(O)ccc12 | 3.25%
Cc1c(Nc2nc3ccccc3nc2NS(=O)(=O)c2cccs2)c(=O)n(-c2ccccc2)n1C | 1.13%
Cc1ccc(S(=O)(=O)NCCCCCC(=O)Nc2ccccc2)cc1 | 4.49%
CC1(C)CC(=O)c2cc3c(nc2C1)CC(C)(C)CC3=O | 6.51%
C=CCn1c(O)c(C=NCCN2CCNCC2)c(=O)[nH]c1=O | 13.8%

Compound | hERG current change (%, negative = inhibition) at 10uM
COc1ccc(N(CC(O)CN2CCOCC2)S(=O)(=O)c2ccccc2)cc1 (centres unmarked) | -12.1%
COc1ccc(NS(=O)(=O)c2cc(NC(=O)C3CC3)ccc2N2CCCCC2)cc1 | 9.99%
N=C1C=CC=C2C1=NC1(CCCCC1)N2O | 11.2%
O=C(Nc1nccs1)c1cc(-c2ccccn2)nc2c(Cl)cccc12 | 14.5%
Cc1ccc2nsnc2c1-n1c(C)nc2ccccc2c1=O | 15.4%
COC(=O)C1=C(SC)N(c2ccc(OC)cc2)C(c2ccccc2)CC1=O (centres unmarked) | -20.9%
CCOC(=O)CCCNC(=O)CCNC(=O)c1ccc(OCC(C)C)cc1 | 3.61%
OCC[C@@H]1C[C@@H](O)[C@H](O)[C@@]2(CCCO2)O1 | 6.76%
COC(=O)c1cccc(NC(=O)c2cc3ccccc3o2)c1 | -18%
Clc1ccc(OCCSCc2nc3ccccc3[nH]2)cc1 | -33.9%
COc1cccc(N2C(=O)C3CCCN3C2c2ccc(N(C)C)cc2)c1 (centres unmarked) | 2.1%
O=C(CNC(=O)C(c1ccccc1)c1ccccc1)N/N=C/c1ccc(O)cc1O | -4.68%
Cc1cccc(OCC(=O)Nc2ccccc2N2CCN(C(=O)C(C)C)CC2)c1C | -2.63%
N#CCCN(CCC#N)S(=O)(=O)c1ccc(C(=O)Nc2nnc(C3=COCCO3)o2)cc1 | 16.9%
Cc1cc(-c2ccc(C)c(S(=O)(=O)N3CCN(C(=O)c4ccco4)CC3)c2)on1 | -51.8%
COc1ccc(-c2nn[nH]n2)cc1OC | 12.4%
Cc1cccc(N2CC(C(=O)NCC3COc4ccccc4O3)CC2=O)c1C (centres unmarked) | -11.3%
COc1ccc(C(=O)CSc2ccc3nnc(-c4cccnc4)n3n2)cc1 | -70.3%
CC(=O)/C(C(=N)N1CCN(C(c2ccccc2)c2ccccc2)CC1)=C(\C)O | 8.3%
C=CCc1cc(Cl)ccc1OCCn1ccnc1.O=C(O)C(=O)O | -10.1%
COc1ccc(/C(O)=C2/C(=O)C(=O)N(CCCN3CCOCC3)C2c2ccc(C)cc2)cc1 (centres unmarked) | 18.8%
CC1=C(C(=O)Nc2ccccn2)C(c2ccc(F)cc2)n2ncnc2N1 (centres unmarked) | -13.1%
COc1ccc(C(C)=O)cc1CN1C(=O)NC2(CCCCC2)C1=O | -3.62%

Compound | hERG current change (%, negative = inhibition) at 10uM
CN(C)C(CNC(=S)Nc1cccc(Cl)c1)c1ccccc1 (centres unmarked) | -35.3%
O=C(O)c1cc(-c2ccc3c(c2)OCCO3)n[nH]1 | 9.83%
c1ccc2[nH]c(SCc3ccc(-c4nnco4)cc3)nc2c1 | -3.93%
NNC(=O)C(Cc1ccc(O)cc1)N1Cc2ccccc2C1=O (centres unmarked) | 14.7%
CCS(=O)(=O)C1=NN2C(=N)/C(=C\c3ccc(OS(=O)(=O)c4ccccc4)cc3)C(=O)N=C2S1 | 15.2%
CC(C)c1nnc(NC(=O)c2cccc(-n3cnnn3)c2)s1 | 4.79%
CSc1nc2n(n1)C(C)C1=C(CCCC1=O)N2 (centres unmarked) | 19%
Cc1nn(-c2ccc(Cl)c(Cl)c2)c(C)c1C(=O)O | 31%
COc1ccccc1CCC(=O)OCc1csc(CC(=O)Nc2ccccc2C)n1 | -9.67%
CN1CCN(/N=C/c2c(O)n(CCC3=CCCCC3)c(=S)[nH]c2=O)CC1 | -64.9%
Nc1cc([N+](=O)[O-])ccc1O | 6.95%
O=C(CN(CC1CCCO1)C(=O)CNS(=O)(=O)c1ccc(Cl)cc1)NC1CCCCC1 (centres unmarked) | -5.15%
CN(C)S(=O)(=O)c1cccc(NC(=O)c2ccc3nccnc3c2)c1 | -11.5%
O=C(O)c1ccccc1NS(=O)(=O)c1cccc2cccnc12 | -11.4%
Cc1cccc(N2C(=O)c3cccc(Oc4ccc(Cl)cc4)c3C2=O)c1 | 4.76%
COc1ccc(CSc2n[nH]c(C)n2)cc1[N+](=O)[O-] | 26.2%
CC1=Cc2ccccc2C(C#N)N1C(=O)c1ccccc1 (centres unmarked) | -11.3%
Cc1cc(C)nc(NC(=O)/C=C/c2ccccc2Cl)n1 | -1.84%
O=C(N=Nc1c(O)[nH]c(=O)[nH]c1=O)C1COc2cc3ccccc3cc2O1 (centres unmarked) | 13.2%
Cc1ccc(NC(=O)CSc2nnc([C@H](C)NC(=O)OC(C)(C)C)o2)c(C)c1 | -6.67%
